Laboratory results as given in PubChem BioAssay AID624417 (National Center for Advancing Translational Sciences (NCATS), 2012).
The campaign covered roughly 410,000 compounds. About 6,400 (1.6%) were called active. Inconclusive results, whose numbers are uncertain, are shown with a selection of clear calls. Calls follow the shape of the dose curve; as a rule, active = well fitted inhibition curve with a large enough effect; inconclusive = small, poorly fitted or top-dose-only effect; inactive = no such curve, though single readings can be large or run the other way. No potency is given beside an inconclusive call; the fits are too rough.

Target: Glucagon-like peptide 1 receptor (Homo sapiens) (UniProt P43220)
UniProt P43220, sequence (P43220 whole entry, looked up): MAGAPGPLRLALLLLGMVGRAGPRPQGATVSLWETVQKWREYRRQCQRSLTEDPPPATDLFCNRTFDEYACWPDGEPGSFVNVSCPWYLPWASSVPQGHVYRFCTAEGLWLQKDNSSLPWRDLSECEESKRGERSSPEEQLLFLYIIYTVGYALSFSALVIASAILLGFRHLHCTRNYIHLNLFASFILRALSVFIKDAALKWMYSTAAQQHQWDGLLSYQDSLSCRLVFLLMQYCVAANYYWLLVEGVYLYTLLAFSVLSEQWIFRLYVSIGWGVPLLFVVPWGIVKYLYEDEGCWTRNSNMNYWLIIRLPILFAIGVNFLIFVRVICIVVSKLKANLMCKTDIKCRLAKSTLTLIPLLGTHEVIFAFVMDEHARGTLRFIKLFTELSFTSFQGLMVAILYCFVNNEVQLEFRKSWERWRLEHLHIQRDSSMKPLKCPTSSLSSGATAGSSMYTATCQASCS
Assay: qHTS of GLP-1 Receptor Inverse Agonists (Inhibition Mode); also: nearly all actives have a fitted effect of over 55% in size
Conditions: HEK293 GLP-1R CRE-luciferase, luminescence, 24 h, GLP-1R form is constitutively active; activity change, negative = inhibition: at 38.3 µM (top of the series) unless noted
Outline: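 HEK293 cells stably co-expressing constitutively active GLP-1R and a cAMP-responsive luciferase reporter were seeded in DMEM with 10% Nu serum, given compounds after 12 h, and incubated 24 h at 37 deg C. Luminescence was then read.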
% is scaled to controls: 0 for no effect and ±100 for the full control effect; potency is read from the fitted curve at half-maximal effect; tags tell the direction and shape of the fitted curve.

SMILES | Potency | activity change, negative = inhibition
COc1ccc(C(=O)Nc2ccc(C)c(S(=O)(=O)N3CCCCCC3)c2)cc1 | inconclusive [inhibitor, partial curve, poor fit] | 
CCCCNC(=O)C(Sc1ccccc1)c1ccccc1 (stereo not given) | inconclusive [inhibitor, partial curve] | 
COc1ccc(/C=C/C(=O)c2cc(F)ccc2OC(=O)c2ccccc2)cc1OC | inconclusive [inhibitor, full curve, poor fit] | 
Cc1c(C(=O)Nc2ccc(F)c(F)c2)oc2ccc(S(=O)(=O)N(C)C3CCCCC3)cc12 |  | inactive: 7.64%
CCOC(=O)c1ccc(NC(=O)C(C)N(c2ccc(OCC)cc2)S(C)(=O)=O)cc1 (stereo not given) | inconclusive [inhibitor, single point] | 
COc1ccc(CCNC(=O)CCCCn2c(=O)c3ccccc3n(Cc3ccc(Cl)cc3)c2=O)cc1OC | inconclusive [inhibitor, single point] | 
Cc1cccc(CNC(=O)Cc2ccc(NC(=O)N3CCCCc4ccccc43)cc2)c1 | inconclusive [inhibitor, single point] | 
N#Cc1nc(-c2cccc3ccccc23)oc1NCC1CCCO1 (stereo not given) | inconclusive [inhibitor, partial curve, poor fit] | 
CCOc1ccc(-c2nn(-c3ccccc3)cc2C2NC(=O)NC(C)=C2C(=O)OC(C)C)cc1C (stereo not given) | inconclusive [inhibitor, single point] | 
O=C(c1cc(COc2ccc(F)cc2Cl)on1)N1CCc2sccc2C1 | inconclusive [inhibitor, partial curve, poor fit] | 
CCCc1ccc(-c2csc(NC(=O)Cc3cccs3)n2)cc1 |  | inactive: -59.4%
O=C1C(c2ccc(F)cc2)N(Cc2ccccc2Cl)C(=O)CN1C1CCCCC1 (stereo not given) | inconclusive [inhibitor, partial curve, poor fit] | 
Cc1ccc(C(=O)N2CCC(N3CCN(Cc4ccc(F)cc4)C(=O)C3=O)CC2)cc1 |  | inactive: -14.1%
C=CC[n+]1c(C)csc1Nc1cccc(Br)c1 | inconclusive [inhibitor, single point] | 
CC1CCCCN1c1nc(-c2ccncc2)nc2ccccc12 (stereo not given) | inconclusive [inhibitor, partial curve, poor fit] | 
CC[C@H]1C/C=C\Cc2ccccc2[C@@H](C(=O)C[C@@H](O)CC(C)=O)OC1=O | inconclusive [inhibitor, single point] | 
CCC(C(=O)NC(C)(C)C)n1c(C(c2ccccc2)c2ccccc2)nc2ccccc21 (stereo not given) |  | inactive: -19.1%
COc1ccc(/C=C2\SC(=S)N(CCC(=O)NCCCN3CCOCC3)C2=O)cc1 | inconclusive [inhibitor, full curve, poor fit] | 
CCOc1ccc(S(=O)(=O)NCCC(=O)NC2CCC(C)CC2)cc1 (stereo not given) | inconclusive [inhibitor, single point] | 
CC(C)(C)c1ccc(C(=O)O/N=C(\N)c2ccccc2)cc1 | inconclusive [inhibitor, partial curve, poor fit] | 

SMILES | Potency | activity change, negative = inhibition
COc1cc([N+](=O)[O-])ccc1NC(=O)NN1CCN(C)CC1 |  | inactive: 14.8%
CCCCNC(=O)Nc1ccc(C2SCCS2)cc1 | inconclusive [inhibitor, full curve, poor fit] | 
Cc1ccc2c(c1)C(=O)C(=O)N2Cc1ccc(OC(C)C)cc1 | active: 1.12 µM | 
COc1ccc(OC)c(S(=O)(=O)N2Cc3ccccc3CC2C(=O)Nc2ccc(Cl)cc2)c1 (stereo not given) | inconclusive [inhibitor, single point] | 
CCN(CC)S(=O)(=O)c1cc(NC(=O)NCCCl)ccc1C |  | inactive: -16.6%
CCCC(=NCCc1c(C)[nH]c2ccccc12)C1=C(O)CC(c2ccccc2)CC1=O (stereo not given) | active: 2.51 µM | 
COc1ccc(N(CC(=O)NCCc2ccc(C)cc2)S(=O)(=O)c2c(C)noc2C)cc1 | inconclusive [inhibitor, single point] | 
O=C(NCCCN1CCN(c2ccc(F)cc2)CC1)c1sc2ncccc2c1-n1cccc1 | inconclusive [inhibitor, partial curve, poor fit] | 
O=C(C1CCN(C2CCN(Cc3ccc4cc(F)ccc4n3)CC2)CC1)N1CCCC1 | inconclusive [inhibitor, partial curve, poor fit] | 
CCCC(=O)Nc1cccc(NC(=O)c2cccc([N+](=O)[O-])c2C)c1 | inconclusive [inhibitor, single point] | 
CCCCN1C(=O)C(O)(CC(=O)c2c(C)coc2C)c2ccccc21 (stereo not given) | inconclusive [inhibitor, single point] | 
O=C(NC1CCCCC1)c1ccc(CNc2ccccc2)o1 | inconclusive [inhibitor, partial curve, poor fit] | 
O=C(CS(=O)(=O)Cc1ccccc1)Nc1ccc(Br)cc1F | inconclusive [inhibitor, partial curve, poor fit] | 
Cc1cc(/C=C2\Sc3ccccc3N2C)cc(C)[n+]1CC1CCCO1 (stereo not given) | inconclusive [inhibitor, partial curve, poor fit] | 
C[C@@]12C(=O)N(c3cccc(F)c3)C(=O)N1[C@H](c1ccc(F)cc1)[C@@H]1C(=O)N(C3CCCCC3)C(=O)[C@@H]12 | inconclusive [inhibitor, single point] | 
Cc1ccc2c(c1)CC(C)N2S(=O)(=O)c1nnc(NC(=O)c2ccccc2F)s1 (stereo not given) | inconclusive [inhibitor, partial curve, poor fit] | 
CCCCCC(=O)N=Nc1c(O)[nH]c2ccc([N+](=O)[O-])cc12 |  | inactive: 21.1%
Cc1[nH]oc(=O)c1N=Nc1ccc2[nH]c(=O)[nH]c2c1 |  | inactive: 18.2%
O=C(CC1C(=O)NCCN1Cc1cccc(F)c1F)NCCCC1CCCC1 (stereo not given) | inconclusive [inhibitor, single point] | 
Cc1c(C(=O)N(Cc2ccc(F)cc2)C2CCS(=O)(=O)C2)oc2ccccc12 (stereo not given) | inconclusive [inhibitor, partial curve, poor fit] | 

SMILES | Potency | activity change, negative = inhibition
CCc1cccc2c(C(=O)CN3C(=O)NC4(CCCCC4)C3=O)c[nH]c12 | inconclusive [inhibitor, single point] | 
Cc1ccc(C(C(=O)NC2CCCC2)N(Cc2cccs2)C(=O)CNC(=O)c2cccs2)o1 (stereo not given) | inconclusive [inhibitor, single point] | 
CN(C)S(=O)(=O)c1cccc(NC(=S)N2CCc3ccccc32)c1 | inconclusive [inhibitor, partial curve, poor fit] | 
CC1=C(C(=O)OC(C)C)C(c2ccc(C)o2)C(C(=O)OC(C)C)=C(C)N1 | inconclusive [inhibitor, partial curve, poor fit] | 
CCCNC(=S)Nc1ccc(Nc2ccccc2)cc1 | inconclusive [inhibitor, partial curve, poor fit] | 
O=Nc1c(O)n(Cc2cccc(C(F)(F)F)c2)c2ccccc12 | inconclusive [inhibitor, single point] | 
Cn1c(SCCN2CCCC2)nnc1C1CCN(S(=O)(=O)c2ccc(F)cc2)CC1 | inconclusive [inhibitor, partial curve, poor fit] | 
O=C1C2C3C=CC(C4CC34)C2C(=O)N1c1ccc2c(c1)OCO2 (stereo not given) | inconclusive [inhibitor, single point] | 
CCOc1ccc(C(C(=O)NCC2CCCO2)N(CCc2cccc(C)c2)C(=O)c2snc(C(N)=O)c2N)cc1 (stereo not given) | active: 7.94 µM | 
Cc1cc(=S)c2ccccc2[nH]1 | inconclusive [inhibitor, full curve, poor fit] | 
O=C(CSc1nc2c([nH]c3ccccc32)c(=O)n1-c1ccccc1F)Nc1ccccc1C(F)(F)F | inconclusive [inhibitor, partial curve, poor fit] | 
COc1ccc(C(=O)n2nc(C)cc2Nc2ccccc2)cc1 | inconclusive [inhibitor, single point] | 
CCCCN(C)CCCNC(=O)c1cc(Nc2ccc(OC)c(OC)c2)nc2ccccc12 | inconclusive [inhibitor, partial curve, poor fit] | 
Cc1cc(C(=O)COC(=O)c2ccc(O)cc2O)c(C)n1-c1ccccc1 | inconclusive [inhibitor, partial curve, poor fit] | 
O=C(Nc1ccc(F)c(Cl)c1)c1cc(C2CCCCN2C(=O)CCCc2ccccc2)on1 (stereo not given) | inconclusive [inhibitor, partial curve, poor fit] | 
Cc1ccc(Cl)cc1N1CCN(C(=O)c2cc(S(=O)(=O)N3CCCCCC3)cn2C)CC1 | inconclusive [inhibitor, single point] | 
O=C(O)CSc1nnc(Cc2cccc3ccccc23)n1-c1cc(C(F)(F)F)cc(C(F)(F)F)c1 | inconclusive [inhibitor, partial curve, poor fit] | 
Cc1ccc(Nc2c([N+](=O)[O-])ccc3nonc23)cc1C | inconclusive [inhibitor, partial curve] | 
COC(=O)[C@@H]1C[C@]2(OC(=O)c3ccccc3)C=CC(=O)C[C@@H]2N1C(=O)OCc1ccccc1 | active: 7.08 µM | 
CN(C)C(=O)c1cc(C(=O)c2ccc(C(F)(F)F)cc2)c[nH]1 |  | inactive: 0.904%
